The results in this text go back to patent US11000038B2, “Pyridone compounds and agricultural and horticultural fungicides containing the same as active ingredients” (priority 2017, dated 2021).

For assay [1], the system named is rice blast fungi (Magnaporthe grisea). It counts as in vivo. Particulars: rice blast, spray treatment of rice plants.
Assay [2] concerns cucumber anthracnose fungi (Colletotrichum orbiculare). Put plainly: Test Example H: cucumber anthracnose, spray treatment of cucumber plants. Particulars: cucumber anthracnose, 250 ppm spray (2.5 ml/pot), 6 to 10 days after inoculation.
Assay [3] relates to tomato late blight fungi (Phytophthora infestans). It counts as in vivo. Particulars: tomato late blight, spray treatment of tomato plants.

As to `CCc1ccccc1-n1cc(C)c(=O)c(C)c1-c1c(F)cc(OC)cc1F` [Compound 338], the “Test A control value” in assay [1] is given as “H (H shows the control value of more than 50%)”. Also, in assay [2], the “Test H control value” is listed as “H (H shows the control value of more than 50%)”. In addition, in assay [3], the “Test F control value” is “L (L shows the control value of 50% or less)”.

Turning to `CCc1ccccc1-n1cc(Cl)c(=O)c(Cl)c1-c1c(F)cc(F)cc1F` [Compound 339], the “Test A control value” in assay [1] is reported as “H (H shows the control value of more than 50%)”. Also, the “Test H control value” in assay [2] is given as “H (H shows the control value of more than 50%)”. Besides, in assay [3], the “Test F control value” was “L (L shows the control value of 50% or less)”.

In the case of `C=Cc1cn(-c2ccccc2C)c(-c2c(F)cc(F)cc2F)c(C)c1=O` [Compound 340], the “Test A control value” in assay [1] is reported as “H (H shows the control value of more than 50%)”. Also, in assay [2], the “Test H control value” was “H (H shows the control value of more than 50%)”. For the same molecule, the “Test F control value” in assay [3] is recorded as “L (L shows the control value of 50% or less)”.

Turning to `Cc1ccccc1-n1cc(Br)c(=O)c(CC(F)(F)F)c1-c1c(F)cc(F)cc1F` [Compound 341], the “Test A control value” in assay [1] was “H (H shows the control value of more than 50%)”. In addition, the “Test H control value” in assay [2] is on record as “L (L shows the control value of 50% or less)”. In assay [3], the “Test F control value” is “L (L shows the control value of 50% or less)”.

For the molecule `Cc1cccc(C)c1-n1cc(Br)c(=O)c(Cl)c1-c1ccc(F)cc1` [Compound 342], the “Test A control value” in assay [1] is reported as “L (L shows the control value of 50% or less)”. In assay [2], the “Test H control value” is reported as “H (H shows the control value of more than 50%)”. Besides, the “Test F control value” in assay [3] is recorded as “L (L shows the control value of 50% or less)”.

With `Cc1cccc(C)c1-n1cc(Br)c(=O)c(Br)c1-c1ccc(F)cc1` [Compound 343], in assay [1], the “Test A control value” is listed as “L (L shows the control value of 50% or less)”. Besides, the “Test H control value” in assay [2] is recorded as “H (H shows the control value of more than 50%)”. For the same molecule, in assay [3], the “Test F control value” is recorded as “L (L shows the control value of 50% or less)”.

For the molecule `Cc1cccc(C)c1-n1cc(Cl)c(=O)c(Br)c1-c1ccc(F)cc1` [Compound 344], the “Test A control value” in assay [1] is “L (L shows the control value of 50% or less)”. In assay [2], the “Test H control value” was “H (H shows the control value of more than 50%)”. The “Test F control value” in assay [3] is recorded as “L (L shows the control value of 50% or less)”.

As to `Cc1cccc(C)c1-n1cc(Cl)c(=O)c(Cl)c1-c1ccc(F)cc1` [Compound 345], in assay [1], the “Test A control value” is reported as “L (L shows the control value of 50% or less)”. Further, the “Test H control value” in assay [2] was “H (H shows the control value of more than 50%)”. For the same molecule, in assay [3], the “Test F control value” was “L (L shows the control value of 50% or less)”.

On to `Cc1c(Br)cccc1-n1cc(Br)c(=O)c(Cl)c1-c1c(F)cc(F)cc1F` [Compound 346], for which the “Test A control value” in assay [1] was “H (H shows the control value of more than 50%)”. In assay [2], the “Test H control value” is reported as “H (H shows the control value of more than 50%)”. Besides, in assay [3], the “Test F control value” was “L (L shows the control value of 50% or less)”.

Regarding `Cc1c(Br)cccc1-n1cc(Br)c(=O)c(Br)c1-c1c(F)cc(F)cc1F` [Compound 347], the “Test A control value” in assay [1] is “H (H shows the control value of more than 50%)”. Further, the “Test H control value” in assay [2] is given as “H (H shows the control value of more than 50%)”. Moreover, the “Test F control value” in assay [3] is listed as “L (L shows the control value of 50% or less)”.

For `Cc1ccc(N)cc1-n1cc(Br)c(=O)c(Cl)c1-c1c(F)cc(F)cc1F` [Compound 348], the “Test A control value” in assay [1] is on record as “L (L shows the control value of 50% or less)”. Moreover, in assay [2], the “Test H control value” is recorded as “L (L shows the control value of 50% or less)”. In assay [3], the “Test F control value” was “L (L shows the control value of 50% or less)”.

Consider `CCc1ccccc1-n1cc(Cl)c(=O)c(Br)c1-c1c(F)cc(F)cc1F` [Compound 349], for which the “Test A control value” in assay [1] was “H (H shows the control value of more than 50%)”. For the same molecule, the “Test H control value” in assay [2] was “H (H shows the control value of more than 50%)”. Besides, the “Test F control value” in assay [3] is “L (L shows the control value of 50% or less)”.

As for `CCc1ccccc1-n1cc(Br)c(=O)c(Cl)c1-c1c(F)cc(F)cc1F` [Compound 350], the “Test A control value” in assay [1] was “H (H shows the control value of more than 50%)”. Besides, in assay [2], the “Test H control value” is reported as “H (H shows the control value of more than 50%)”. For the same molecule, the “Test F control value” in assay [3] is reported as “L (L shows the control value of 50% or less)”.

As for `Cc1cn(-c2ccccc2F)c(-c2c(F)cccc2F)c(C)c1=O` [Compound 351], the “Test A control value” in assay [1] is “H (H shows the control value of more than 50%)”. Also, in assay [2], the “Test H control value” was “H (H shows the control value of more than 50%)”. Further, the “Test F control value” in assay [3] was “L (L shows the control value of 50% or less)”.

On to `CCc1ccccc1-n1cc(Br)c(=O)c(Br)c1-c1c(F)cc(F)cc1F` [Compound 352], for which the “Test A control value” in assay [1] is reported as “H (H shows the control value of more than 50%)”. Also, in assay [2], the “Test H control value” was “H (H shows the control value of more than 50%)”. Moreover, in assay [3], the “Test F control value” is on record as “L (L shows the control value of 50% or less)”.

For `Cc1ccccc1-n1cc(C)c(=O)c(C)c1-c1ccccc1F` [Compound 353], the “Test A control value” in assay [1] was “H (H shows the control value of more than 50%)”. Besides, in assay [2], the “Test H control value” was “H (H shows the control value of more than 50%)”. In addition, the “Test F control value” in assay [3] is “L (L shows the control value of 50% or less)”.

Turning to `Cc1ccccc1-n1cc(C)c(=O)c(C)c1-c1ccccc1Cl` [Compound 354], in assay [1], the “Test A control value” is “H (H shows the control value of more than 50%)”. In assay [2], the “Test H control value” was “H (H shows the control value of more than 50%)”. Besides, the “Test F control value” in assay [3] is given as “L (L shows the control value of 50% or less)”.

As for `Cc1ccccc1-n1cc(C)c(=O)c(CC(F)(F)F)c1-c1c(F)cc(F)cc1F` [Compound 355], the “Test A control value” in assay [1] is given as “H (H shows the control value of more than 50%)”. The “Test H control value” in assay [2] is listed as “L (L shows the control value of 50% or less)”. Moreover, in assay [3], the “Test F control value” is recorded as “L (L shows the control value of 50% or less)”.

For `COc1cc(F)c(-c2c(CC(F)(F)F)c(=O)c(Br)cn2-c2ccccc2C)c(F)c1` [Compound 356], the “Test A control value” in assay [1] is listed as “H (H shows the control value of more than 50%)”. Besides, the “Test H control value” in assay [2] is given as “H (H shows the control value of more than 50%)”. For the same molecule, the “Test F control value” in assay [3] is recorded as “L (L shows the control value of 50% or less)”.

Turning to `Cc1ccccc1-n1cc(Br)c(=O)c(C)c1-c1ccccc1` [Compound 357], the “Test A control value” in assay [1] is “L (L shows the control value of 50% or less)”. Also, the “Test H control value” in assay [2] is given as “L (L shows the control value of 50% or less)”. Also, the “Test F control value” in assay [3] is reported as “L (L shows the control value of 50% or less)”.

For `Cc1cccc(F)c1-n1cc(Br)c(=O)c(Cl)c1-c1ccc(F)cc1` [Compound 358], in assay [1], the “Test A control value” is given as “L (L shows the control value of 50% or less)”. The “Test H control value” in assay [2] is reported as “L (L shows the control value of 50% or less)”. In assay [3], the “Test F control value” is recorded as “L (L shows the control value of 50% or less)”.

For `Cc1cccc(F)c1-n1cc(Br)c(=O)c(Br)c1-c1ccc(F)cc1` [Compound 359], the “Test A control value” in assay [1] is on record as “L (L shows the control value of 50% or less)”. In addition, the “Test H control value” in assay [2] was “H (H shows the control value of more than 50%)”. Moreover, in assay [3], the “Test F control value” is “L (L shows the control value of 50% or less)”.

Turning to `Cc1cn(-c2ccccc2)c(-c2c(F)cccc2F)c(C)c1=O` [Compound 360], in assay [1], the “Test A control value” is on record as “H (H shows the control value of more than 50%)”. For the same molecule, the “Test H control value” in assay [2] is given as “H (H shows the control value of more than 50%)”. Moreover, the “Test F control value” in assay [3] is reported as “L (L shows the control value of 50% or less)”.

As for `O=c1c(Br)cn(-c2ccccc2F)c(-c2c(F)cccc2F)c1Cl` [Compound 361], the “Test A control value” in assay [1] was “L (L shows the control value of 50% or less)”. Further, the “Test H control value” in assay [2] was “H (H shows the control value of more than 50%)”. The “Test F control value” in assay [3] is on record as “L (L shows the control value of 50% or less)”.

In the case of `O=c1c(Br)cn(-c2ccccc2)c(-c2c(F)cccc2F)c1Cl` [Compound 362], in assay [1], the “Test A control value” is “H (H shows the control value of more than 50%)”. In addition, the “Test H control value” in assay [2] is reported as “H (H shows the control value of more than 50%)”. Moreover, the “Test F control value” in assay [3] was “L (L shows the control value of 50% or less)”.

With `O=c1c(Br)cn(-c2ccccc2)c(-c2c(F)cccc2F)c1Br` [Compound 363], in assay [1], the “Test A control value” was “L (L shows the control value of 50% or less)”. In addition, the “Test H control value” in assay [2] was “L (L shows the control value of 50% or less)”. In addition, in assay [3], the “Test F control value” is “L (L shows the control value of 50% or less)”.

With `Cc1c(-n2cc(Br)c(=O)c(Cl)c2-c2c(F)cc(F)cc2F)cccc1C(F)(F)F` [Compound 364], in assay [1], the “Test A control value” is on record as “H (H shows the control value of more than 50%)”. Also, the “Test H control value” in assay [2] is on record as “H (H shows the control value of more than 50%)”. The “Test F control value” in assay [3] was “L (L shows the control value of 50% or less)”.

As to `Cc1c(-n2cc(Br)c(=O)c(Br)c2-c2c(F)cc(F)cc2F)cccc1C(F)(F)F` [Compound 365], the “Test A control value” in assay [1] is reported as “L (L shows the control value of 50% or less)”. The “Test H control value” in assay [2] is given as “L (L shows the control value of 50% or less)”. Besides, the “Test F control value” in assay [3] is recorded as “L (L shows the control value of 50% or less)”.

With `COc1cccc(-n2cc(Br)c(=O)c(Cl)c2-c2c(F)cc(F)cc2F)c1C` [Compound 366], the “Test A control value” in assay [1] was “H (H shows the control value of more than 50%)”. In assay [2], the “Test H control value” is “H (H shows the control value of more than 50%)”. Also, the “Test F control value” in assay [3] is reported as “H (H shows the control value of more than 50%)”.
